# Article PMC12820563, “FoxP3 forms a head-to-head dimer in vivo and stabilizes its multimerization on adjacent microsatellites”
# The list shows a part of the results.
# Target: T1, MBP-FoxP1dN (Mus musculus, UniProt P58462 326-579)
# T1 sequence: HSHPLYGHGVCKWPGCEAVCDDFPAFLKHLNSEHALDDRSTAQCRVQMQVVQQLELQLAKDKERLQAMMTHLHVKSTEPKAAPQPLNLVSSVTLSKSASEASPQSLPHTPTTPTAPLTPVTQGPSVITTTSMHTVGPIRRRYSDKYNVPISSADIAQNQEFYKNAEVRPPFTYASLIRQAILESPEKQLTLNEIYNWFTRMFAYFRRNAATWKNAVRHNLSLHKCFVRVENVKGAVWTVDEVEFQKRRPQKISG
# Assay: PD-seq (MBP pull-down with sequencing); 20 mM Tris-HCl pH 7.5, 100 mM NaCl, 1.5 mM MgCl2, 0.4 uM protein, 0.1 uM dsDNA library, 30 min, room temperature, amylose pull-down; high values mean tight binding
# Conditions: protein: recombinant; tags: His6-MBP; chain copies: 2; dsDNA, one strand shown
# Procedure, shortened: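 Binding is reads-per-million enrichment of pull-down over input, with replicates pooled. It comes from 30 min room-temperature incubation in Tris pH 7.5 buffer with NaCl and MgCl2 of 0.4 µM His6-MBP-tagged, N-terminally truncated mouse FoxP3 or FoxP1 fragment from E. coli with 0.1 µM Klenow-filled degenerate double-stranded DNA library, followed by amylose resin capture, three washes and Illumina sequencing of the released DNA.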
row,Sequence,binding signal
1,GATGATTGTTCTCCCAGCTGATGAATTGGGGGTCTCGAGTAAACAAATTTTCCTAATCTTTCTGTTCAAGCGCCATCTAC,0.83 RPM ratio (pull-down/input)
2,GATGATTGTTCTCCCAGCTGATGAATTTAGAAACTCGAGTAAACAAATTTTCCTAATCTTTCTGTTCAAGCGCCATCTAC,0.958 RPM ratio (pull-down/input)
3,GATGATTGTTCTCCCAGCTGATGAATTTAGGGAATCGAGTAAACAAATTTTCCTAATCTTTCTGTTCAAGCGCCATCTAC,0.951 RPM ratio (pull-down/input)
4,GATGATTGTTCTCCCAGCTGATGAATTTCGTCGTTCGAGTAAACAAATTTTCCTAATCTTTCTGTTCAAGCGCCATCTAC,0.912 RPM ratio (pull-down/input)
5,GATGATTGTTCTCCCAGCTGATGAATTTTCCCGGTCGAGTAAACAAATTTTCCTAATCTTTCTGTTCAAGCGCCATCTAC,0.777 RPM ratio (pull-down/input)
6,GATGATTGTTCTCCCAGCTGATGAATTGATAGTATCGAGTAAACAAATTTTCCTAATCTTTCTGTTCAAGCGCCATCTAC,1.12 RPM ratio (pull-down/input)
7,GATGATTGTTCTCCCAGCTGATGAATTAAACTGCTCGAGTAAACAAATTTTCCTAATCTTTCTGTTCAAGCGCCATCTAC,0.867 RPM ratio (pull-down/input)
8,GATGATTGTTCTCCCAGCTGATGAATTTAAAGTTTCGAGTAAACAAATTTTCCTAATCTTTCTGTTCAAGCGCCATCTAC,0.904 RPM ratio (pull-down/input)
9,GATGATTGTTCTCCCAGCTGATGAATTTAGGAAGTCGAGTAAACAAATTTTCCTAATCTTTCTGTTCAAGCGCCATCTAC,0.879 RPM ratio (pull-down/input)
10,GATGATTGTTCTCCCAGCTGATGAATTCTACCGTTCGAGTAAACAAATTTTCCTAATCTTTCTGTTCAAGCGCCATCTAC,0.873 RPM ratio (pull-down/input)
11,GATGATTGTTCTCCCAGCTGATGAATTATATATCTCGAGTAAACAAATTTTCCTAATCTTTCTGTTCAAGCGCCATCTAC,1.05 RPM ratio (pull-down/input)
12,GATGATTGTTCTCCCAGCTGATGAATTACGACTTTCGAGTAAACAAATTTTCCTAATCTTTCTGTTCAAGCGCCATCTAC,1.09 RPM ratio (pull-down/input)
13,GATGATTGTTCTCCCAGCTGATGAATTAACACTTTCGAGTAAACAAATTTTCCTAATCTTTCTGTTCAAGCGCCATCTAC,1.06 RPM ratio (pull-down/input)
14,GATGATTGTTCTCCCAGCTGATGAATTCCGCTAATCGAGTAAACAAATTTTCCTAATCTTTCTGTTCAAGCGCCATCTAC,0.88 RPM ratio (pull-down/input)
15,GATGATTGTTCTCCCAGCTGATGAATTCAAGGAGTCGAGTAAACAAATTTTCCTAATCTTTCTGTTCAAGCGCCATCTAC,0.767 RPM ratio (pull-down/input)
16,GATGATTGTTCTCCCAGCTGATGAATTCCTCTCGTCGAGTAAACAAATTTTCCTAATCTTTCTGTTCAAGCGCCATCTAC,0.81 RPM ratio (pull-down/input)
17,GATGATTGTTCTCCCAGCTGATGAATTTCAGGTCTCGAGTAAACAAATTTTCCTAATCTTTCTGTTCAAGCGCCATCTAC,0.752 RPM ratio (pull-down/input)
18,GATGATTGTTCTCCCAGCTGATGAATTAATGATGTCGAGTAAACAAATTTTCCTAATCTTTCTGTTCAAGCGCCATCTAC,1.2 RPM ratio (pull-down/input)
19,GATGATTGTTCTCCCAGCTGATGAATTTGTCGTGTCGAGTAAACAAATTTTCCTAATCTTTCTGTTCAAGCGCCATCTAC,1.16 RPM ratio (pull-down/input)
20,GATGATTGTTCTCCCAGCTGATGAATTTCGATTTTCGAGTAAACAAATTTTCCTAATCTTTCTGTTCAAGCGCCATCTAC,1.02 RPM ratio (pull-down/input)

row,Sequence,binding signal
1,GATGATTGTTCTCCCAGCTGATGAATTGTCTGCCTCGAGTAAACAAATTTTCCTAATCTTTCTGTTCAAGCGCCATCTAC,0.999 RPM ratio (pull-down/input)
2,GATGATTGTTCTCCCAGCTGATGAATTGCTGGTATCGAGTAAACAAATTTTCCTAATCTTTCTGTTCAAGCGCCATCTAC,1.02 RPM ratio (pull-down/input)
3,GATGATTGTTCTCCCAGCTGATGAATTACCAGCTTCGAGTAAACAAATTTTCCTAATCTTTCTGTTCAAGCGCCATCTAC,0.956 RPM ratio (pull-down/input)
4,GATGATTGTTCTCCCAGCTGATGAATTCGGTGGCTCGAGTAAACAAATTTTCCTAATCTTTCTGTTCAAGCGCCATCTAC,0.824 RPM ratio (pull-down/input)
5,GATGATTGTTCTCCCAGCTGATGAATTGCCGTGCTCGAGTAAACAAATTTTCCTAATCTTTCTGTTCAAGCGCCATCTAC,0.904 RPM ratio (pull-down/input)
6,GATGATTGTTCTCCCAGCTGATGAATTCTGGAAGTCGAGTAAACAAATTTTCCTAATCTTTCTGTTCAAGCGCCATCTAC,0.804 RPM ratio (pull-down/input)
7,GATGATTGTTCTCCCAGCTGATGAATTGACAGTCTCGAGTAAACAAATTTTCCTAATCTTTCTGTTCAAGCGCCATCTAC,1.1 RPM ratio (pull-down/input)
8,GATGATTGTTCTCCCAGCTGATGAATTCAATTTTTCGAGTAAACAAATTTTCCTAATCTTTCTGTTCAAGCGCCATCTAC,0.905 RPM ratio (pull-down/input)
9,GATGATTGTTCTCCCAGCTGATGAATTGTATCGCTCGAGTAAACAAATTTTCCTAATCTTTCTGTTCAAGCGCCATCTAC,1.1 RPM ratio (pull-down/input)
10,GATGATTGTTCTCCCAGCTGATGAATTCACCTTCTCGAGTAAACAAATTTTCCTAATCTTTCTGTTCAAGCGCCATCTAC,0.88 RPM ratio (pull-down/input)
11,GATGATTGTTCTCCCAGCTGATGAATTAGGCCATTCGAGTAAACAAATTTTCCTAATCTTTCTGTTCAAGCGCCATCTAC,0.929 RPM ratio (pull-down/input)
12,GATGATTGTTCTCCCAGCTGATGAATTGGGTTTTTCGAGTAAACAAATTTTCCTAATCTTTCTGTTCAAGCGCCATCTAC,0.971 RPM ratio (pull-down/input)
13,GATGATTGTTCTCCCAGCTGATGAATTACCTCACTCGAGTAAACAAATTTTCCTAATCTTTCTGTTCAAGCGCCATCTAC,0.949 RPM ratio (pull-down/input)
14,GATGATTGTTCTCCCAGCTGATGAATTAATCTTATCGAGTAAACAAATTTTCCTAATCTTTCTGTTCAAGCGCCATCTAC,0.932 RPM ratio (pull-down/input)
15,GATGATTGTTCTCCCAGCTGATGAATTGTAAGCTTCGAGTAAACAAATTTTCCTAATCTTTCTGTTCAAGCGCCATCTAC,1.07 RPM ratio (pull-down/input)
16,GATGATTGTTCTCCCAGCTGATGAATTCCGGAAATCGAGTAAACAAATTTTCCTAATCTTTCTGTTCAAGCGCCATCTAC,0.929 RPM ratio (pull-down/input)
17,GATGATTGTTCTCCCAGCTGATGAATTCGGGTCCTCGAGTAAACAAATTTTCCTAATCTTTCTGTTCAAGCGCCATCTAC,0.771 RPM ratio (pull-down/input)
18,GATGATTGTTCTCCCAGCTGATGAATTAAGTCCCTCGAGTAAACAAATTTTCCTAATCTTTCTGTTCAAGCGCCATCTAC,0.871 RPM ratio (pull-down/input)
19,GATGATTGTTCTCCCAGCTGATGAATTGGTAGGCTCGAGTAAACAAATTTTCCTAATCTTTCTGTTCAAGCGCCATCTAC,0.819 RPM ratio (pull-down/input)
20,GATGATTGTTCTCCCAGCTGATGAATTGTAGAAGTCGAGTAAACAAATTTTCCTAATCTTTCTGTTCAAGCGCCATCTAC,0.839 RPM ratio (pull-down/input)
